# From the supplement of paper PMC3334620
# In all, about 33,000 sequences were measured (“E-score (-0.5 to 0.5)”: median about -0.053, highest 2% from about 0.37 on). Some of the results follow.
# Target: Hap1 (UniProt P0CE41)
# Assay: PBM E-score (8-mer binding enrichment) (E-score (-0.5 to 0.5)); higher = stronger / more preferred TF binding; most listed sequences are background and not binding sites
# Settings: protein concentration: 200 nM; construct: GST-DNA-binding domain
# Protocol: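 Universal 'all 10-mer' protein binding microarrays (Agilent AMADID 015681) probed with GST-tagged S. cerevisiae TFs (full-length or DBD) made by in vitro transcription/translation (PURExpress), about 100-200 nM. Bound TF was detected with fluorescent anti-GST. Each ungapped 8-mer (which stands for itself and its reverse complement) is scored by the PBM enrichment score (E-score), a modified Wilcoxon-Mann-Whitney statistic from -0.5 to +0.5, computed with the Universal PBM Analysis Suite. Scale: above 0.35 generally sequence-specific binding.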
# Chain of UniProt P0CE41 (P0CE41 whole entry): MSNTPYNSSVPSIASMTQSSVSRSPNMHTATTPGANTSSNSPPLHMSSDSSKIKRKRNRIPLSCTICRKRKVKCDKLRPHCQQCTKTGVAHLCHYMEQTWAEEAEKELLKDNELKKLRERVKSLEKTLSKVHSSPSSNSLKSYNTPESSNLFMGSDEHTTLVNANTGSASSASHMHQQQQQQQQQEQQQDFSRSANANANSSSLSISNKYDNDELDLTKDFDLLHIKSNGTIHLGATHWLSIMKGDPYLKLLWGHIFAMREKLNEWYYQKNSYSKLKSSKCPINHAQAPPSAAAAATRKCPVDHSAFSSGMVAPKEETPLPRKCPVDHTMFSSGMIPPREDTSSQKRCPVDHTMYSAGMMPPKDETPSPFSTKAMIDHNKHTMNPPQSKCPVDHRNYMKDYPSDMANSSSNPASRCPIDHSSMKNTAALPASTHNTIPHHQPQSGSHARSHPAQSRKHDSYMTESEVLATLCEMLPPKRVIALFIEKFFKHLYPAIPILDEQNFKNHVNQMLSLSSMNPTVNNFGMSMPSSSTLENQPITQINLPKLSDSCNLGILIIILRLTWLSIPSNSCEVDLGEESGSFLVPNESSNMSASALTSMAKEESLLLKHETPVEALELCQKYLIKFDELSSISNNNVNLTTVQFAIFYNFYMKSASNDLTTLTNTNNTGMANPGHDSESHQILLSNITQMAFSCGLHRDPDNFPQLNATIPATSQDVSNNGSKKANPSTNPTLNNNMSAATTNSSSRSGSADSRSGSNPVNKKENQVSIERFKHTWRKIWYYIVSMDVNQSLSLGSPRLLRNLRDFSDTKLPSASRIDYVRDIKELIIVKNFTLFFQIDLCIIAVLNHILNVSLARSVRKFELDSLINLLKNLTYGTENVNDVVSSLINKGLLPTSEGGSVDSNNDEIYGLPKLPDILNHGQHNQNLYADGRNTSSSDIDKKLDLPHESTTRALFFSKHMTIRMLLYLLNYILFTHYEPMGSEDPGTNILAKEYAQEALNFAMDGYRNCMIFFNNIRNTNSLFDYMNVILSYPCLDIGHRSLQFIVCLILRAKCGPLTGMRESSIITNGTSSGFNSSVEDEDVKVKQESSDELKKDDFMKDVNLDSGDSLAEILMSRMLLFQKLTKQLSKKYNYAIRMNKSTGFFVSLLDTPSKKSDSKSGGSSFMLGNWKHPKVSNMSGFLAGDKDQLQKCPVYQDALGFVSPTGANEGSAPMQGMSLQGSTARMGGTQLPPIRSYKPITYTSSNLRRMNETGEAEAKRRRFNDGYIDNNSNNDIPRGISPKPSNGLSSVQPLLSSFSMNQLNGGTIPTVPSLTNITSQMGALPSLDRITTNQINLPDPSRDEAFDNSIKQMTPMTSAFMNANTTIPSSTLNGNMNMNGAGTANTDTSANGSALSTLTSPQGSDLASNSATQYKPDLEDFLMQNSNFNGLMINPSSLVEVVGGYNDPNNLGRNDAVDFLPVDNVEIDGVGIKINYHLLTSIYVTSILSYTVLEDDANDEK
row,Sequence,PBM E-score
1,AACCATTC,-0.1
2,CAATGCCA,-0.162
3,CGTTCTTA,0.108
4,ACATCGCC,0.18
5,CACTGGCG,-0.258
6,GGGCCTAC,0.00914
7,ATGTCCCG,0.234
8,GCACCACC,0.0604
9,CCTACAAA,-0.0726
10,ACTGTGCT,-0.132
11,ACCCGAGA,0.342
12,AGACCCGG,0.355
13,CGGTGAGA,0.12
14,CAATACAC,-0.167
15,GTGTTACA,-0.145
16,AAACGCTA,-0.194
17,GACGACAA,0.0017
18,AGGCGATA,0.119
19,GCCGTAGC,0.171
20,CGTCAGAG,-0.119
21,CTATTAAG,-0.172
22,AGCCGCCA,0.0907
23,TCACGGAA,0.329
24,AAGCATCC,-0.0729
25,CGGGCTCA,0.149

row,Sequence,PBM E-score
1,TATCAATA,-0.243
2,AACCACAC,0.0127
3,ATTGGAAA,-0.113
4,AGTAAAAT,-0.196
5,GCCTAACA,-0.0843
6,CAATGCAA,-0.186
7,GTACCTTA,-0.0597
8,CGGAGACC,0.349
9,CTGACAGA,-0.0898
10,CAAATGTG,0.0726
11,AAGTGAAC,-0.164
12,AGGGAGAT,-0.133
13,ACAAAAGC,0.0095
14,GTGCTCCA,-0.206
15,ATGATACC,0.132
16,AACGCTGC,-0.161
17,GCTCGTAA,-0.117
18,GCCACTAA,-0.158
19,ACTCGGCA,0.232
20,GCACACAA,-0.0118
21,AAGTGTCA,-0.299
22,AAGTAAAA,-0.142
23,AATCCAAG,-0.173
24,TCCGGACA,0.444
25,TACCTATA,-0.22

row,Sequence,PBM E-score
1,GTTTAATA,-0.171
2,ACTGACTA,-0.232
3,AAGCCGAA,0.334
4,ACCTCTAT,-0.132
5,CCGTACCC,0.0474
6,CGCCGCCA,0.146
7,AAAACCTA,-0.078
8,GGAACGCC,0.108
9,ACGGCCTG,-0.0121
10,CCACCTGA,0.014
11,AACACCGC,0.278
12,AAAATCAA,-0.0934
13,ATCACTAC,-0.187
14,TGTCTTAA,-0.0673
15,AGTTCGGA,0.366
16,ATTTGCAA,-0.11
17,GTCACTCA,-0.0768
18,CAGGCGGA,0.174
19,TAAAGAGA,-0.0182
20,ACTGCGTG,-0.275
21,GCAATCTA,0.00488
22,GCAGCTCA,-0.0752
23,CAGCGATC,0.0561
24,TGATAACA,-0.166
25,AGGTCGCA,0.101

row,Sequence,PBM E-score
1,AGGAGGGA,-0.105
2,GTTTCAAA,-0.165
3,GACACCAC,0.0232
4,AGATAAAT,0.0771
5,ACGGCAGC,0.0348
6,CGTAGTGA,-0.0696
7,ACATACTC,-0.129
8,AATGTAGC,0.0138
9,ACAGAGAT,-0.186
10,CACGCACG,0.0457
11,ATTGGGTG,0.0595
12,ATTTTGCC,-0.0764
13,CATCGTGG,-0.175
14,ACCGTGGG,0.088
15,TGCAGTAA,-0.0801
16,GTCCGGAA,0.416
17,ACTAGGCA,-0.195
18,AATATCTC,0.205
19,ATATTGCG,0.185
20,ACTCATTA,-0.00215
21,ACAGAGCA,-0.129
22,GTCCTCGA,-0.163
23,AGCAACAA,-0.112
24,ACGGTGAT,0.125
25,CAACGCGC,0.00913

row,Sequence,PBM E-score
1,ATTTGATC,0.0595
2,CGCCTCAG,0.0106
3,AATACCCC,0.314
4,CCTAGAAC,-0.126
5,AAAACCAG,-0.166
6,ATGGAATA,-0.0111
7,CCTATCTA,-0.233
8,ATCCGTCG,0.225
9,TAATCCCA,0.127
10,GATTGGAC,-0.108
11,CTGGTCTC,-0.234
12,GAACTGAC,0.0329
13,GCAACCAC,-0.0859
14,ACCCATTG,-0.119
15,ACGTTGCC,-0.122
16,CCACTAAA,-0.0762
17,ACAACGCA,-0.115
18,AGTTGGAG,-0.143
19,GCTCATGA,-0.121
20,GAGGGGTA,0.0493
21,AGAGCGAA,-0.0697
22,CATTAGAC,-0.142
23,TATAAATA,0.195
24,GGGTTTAC,0.281
25,ATACGCCG,0.263

row,Sequence,PBM E-score
1,ATACCTAA,-0.132
2,AGCGAGTA,0.122
3,CTGAGACC,-0.0632
4,GATCTCAA,0.026
5,ACTGGCAC,-0.11
6,AGTGCCAA,-0.254
7,GGATGGCC,-0.0478
8,AAACTAGC,-0.188
9,GGATAAAC,0.158
10,AAAGCACA,-0.15
11,GGTTACAA,-0.0255
12,AACGGGCG,0.246
13,AATACATA,-0.125
14,AACCTGCA,-0.109
15,AAGAAATC,-0.0581
16,CCCCGTGA,0.0342
17,CGCAGGTC,-0.0353
18,GAGAATAA,0.0733
19,ACAGCCAT,-0.132
20,AGTTCGAT,-0.0503
21,AATGGGGG,-0.0435
22,AAGAAAGC,-0.113
23,AACTCCGT,0.447
24,AGGCAACT,-0.057
25,TATCCTCA,0.0176

row,Sequence,PBM E-score
1,AAGGGACC,0.0134
2,AACGAAAT,0.119
3,CAACCGAA,0.183
4,ACAACACA,-0.305
5,GCGGGTAC,0.103
6,ACGGTAAG,0.067
7,AGAATGGC,-0.00255
8,TCATCGCA,-0.195
9,AGAGGCAG,-0.292
10,AATAGTGA,-0.138
11,AGCACGTG,-0.213
12,AGGGAGTG,-0.272
13,ACTAGCCC,0.0414
14,AACTGTAT,-0.0679
15,CCTCATAG,-0.199
16,CCAGGAAG,-0.204
17,GCTAGTAC,-0.0763
18,AATGCGTC,-0.131
19,CGGCTACC,0.193
20,CTGGCTCC,-0.189
21,AGAGCCTC,-0.206
22,CAGAGTAA,-0.0886
